According to patent publication US6653258B1 (priority 1987, dated 2003):

System: Tomato plants, cv. Outdoor Girl
Test: Phytotoxicity on tomato plants, spray to maximum retention (Table VII)
Settings: assessed one week after final application
[1] = 10 ppm spray applied 3 times at 3-4 day intervals
[2] = 30 ppm spray applied 3 times at 3-4 day intervals
[3] = 100 ppm spray applied 3 times at 3-4 day intervals

Row | Structure (SMILES) | phytotoxicity, linear 0-5 scale, Tomato [1] | phytotoxicity, linear 0-5 scale, Tomato [2] | phytotoxicity, linear 0-5 scale, Tomato [3]
1 | CCN(CC)c1cccc(OCc2ccccc2/C(=C\OC)C(=O)OC)c1 [Compound 169, Table I] | 0.3 | 0.9 | 1.5
2 | CO/C=C(/C(=O)OC)c1ccccc1COc1ccccc1 [comparative compound, reference compound] | 2.8 | 3.4 | 3.4
